Source: the supplement of paper PMC8728848
This is one part of the list.

Experiments:
Assay in all cases: glycan array binding signal (z-score within array); higher = stronger binding
Settings in all cases: glycan notation: IUPAC condensed, linker removed
[1] = molecular target: GlcNAc(b1-4)GlcNAc(b1-4)GlcNAc(b1-4)GlcNAc(b1-4)GlcNAc
Summary of the method: (§1)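 Glycan array data were curated from 3228 arrays in the Consortium for Functional Glycomics database and kept only where the protein sequence was available. Glycan names were converted to IUPAC-condensed notation, and columns mapping to the same glycan were averaged. The binding signal is a within-array Z-score, averaged across arrays of the same protein sequence at different concentrations or buffers and across linkers. Negative Z-scores can be read as non-binding.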

[2] = molecular target: GlcNAc(b1-4)GlcNAc(b1-4)GlcNAc(b1-4)GlcNAc(b1-4)GlcNAc(b1-4)GlcNAc
Summary of the method: as §1

[3] = molecular target: GlcNAc(b1-4)[GlcNAc(b1-6)]GalNAc
Summary of the method: as §1

[4] = molecular target: GlcNAc(b1-6)Gal(b1-4)GlcNAc
Summary of the method: as §1

[5] = molecular target: GlcNAc(b1-6)GalNAc
Summary of the method: as §1

[6] = molecular target: GlcNAc6S(b1-3)Gal(b1-4)GlcNAc
Summary of the method: as §1

[7] = molecular target: Kdn(a2-3)Gal(b1-3)GalNAc
Summary of the method: as §1

[8] = molecular target: Kdn(a2-3)Gal(b1-3)GlcNAc
Summary of the method: as §1

[9] = molecular target: Kdn(a2-3)Gal(b1-4)Glc
Summary of the method: as §1

[10] = molecular target: Kdn(a2-3)Gal(b1-4)GlcNAc
Summary of the method: as §1

[11] = molecular target: Kdn(a2-3)Gal(b1-4)[Fuc(a1-3)]GlcNAc
Summary of the method: as §1

[12] = molecular target: Kdn(a2-6)Gal(b1-4)GlcNAc
Summary of the method: as §1

[13] = molecular target: Man(a1-2)Man(a1-2)Man(a1-3)Man
Summary of the method: as §1

[14] = molecular target: Man(a1-2)Man(a1-2)Man(a1-6)[Man(a1-3)]Man
Summary of the method: as §1

[15] = molecular target: Man(a1-2)Man(a1-3)Man
Summary of the method: as §1

[16] = molecular target: Man(a1-2)Man(a1-3)[Man(a1-2)Man(a1-6)]Man
Summary of the method: as §1

[17] = molecular target: Man(a1-2)Man(a1-3)[Man(a1-2)Man(a1-6)]Man(a1-6)[Man(a1-2)Man(a1-2)Man(a1-3)]Man
Summary of the method: as §1

[18] = molecular target: Man(a1-2)Man(a1-3)[Man(a1-2)Man(a1-6)]Man(a1-6)[Man(a1-2)Man(a1-2)Man(a1-3)]Man(b1-4)GlcNAc(b1-4)GlcNAc
Summary of the method: as §1

[19] = molecular target: Man(a1-2)Man(a1-3)[Man(a1-6)]Man(a1-6)[Man(a1-2)Man(a1-3)]Man(b1-4)GlcNAc(b1-4)GlcNAc
Summary of the method: as §1

[20] = molecular target: Man(a1-2)Man(a1-6)[Man(a1-3)]Man(a1-6)[Man(a1-2)Man(a1-2)Man(a1-3)]Man
Summary of the method: as §1

[21] = molecular target: Man(a1-2)Man(a1-6)[Man(a1-3)]Man(a1-6)[Man(a1-2)Man(a1-2)Man(a1-3)]Man(b1-4)GlcNAc(b1-4)GlcNAc
Summary of the method: as §1

[22] = molecular target: Man(a1-3)[Man(a1-6)]Man
Summary of the method: as §1

B1: InvD YPIII (Yersinia pseudotuberculosis), B1JSC0 (protein)
chain: MIKYFSFFKKPEPIVGILPNRQSHHILPTHIRRVAWGTLLLQLFIPLSVSFSPAIAAMKASKADTMVSYSSTEPYVLGSGETVAMVAKKYGITVDELKKINIYRTFSRPFTALTTGDEIDIPRKASPFSVDNNKDNRLSVENTLAGHAVAGATALSNGDVAKSGERMVRSAASNEFNNSAQQWLSQFGTARVQLNINDDFHLDGSAADVLIPLYDNEKSILFTQLGARNKDSRNTVNMGAGVRTFQGNWMYGANTFFDNDLTGKNRRIGVGAEAWTDYLKLSANNYFGITDWHQSRDFIDYNERPANGYDLRAEAYLPSYPQLGGKAMYEKYRGDDVALFGKDNRQKNPHAITAGVNYTPIPLVTIGAEHRAGKGGQNDSNINFQLNYRLGETWQSHIDPSAVAASRTLAGSRYDLVERNNHIVLDYQKQNLVRLSLPDSLAGDPFSQLSVTAQVTATHGLERIDWQSAELMAAGGVLKQTSKNGLEITLPEYQMNRTGGNSYILNAIAYDTQGNASSQASMLITVNAQKINIANSTLVAVPINIEANNSDTSVVTLTLKDDNNIPVTGQDVTFLSPLGTLSAMTDSGNGVYTATLTAGTVSGTTAVSSNINGSALDMTPATVTLNGNSGELSITHSMLVAAPVNIEANGSDTSVVTLTLRDSNNNPVTGQTVTFAGTLGTLGAVTEGSSGVYTATLTAGIMVGTSSITASVNSTALGVTPATVTLNGDSGNLSTTNSTLVAAPVNIEANSSDTSVVTLTLRDNNNNPVTGQTVVFTSTLGTLGNVTEQASGVYTATLTAGTVSGVASLSVSVGGNALGVTPATVTLNGDSGNLSTTNSTLVAAPVNIEANSSDTSVVTLTLRDNNNNPVTGQTVNFAGTLGTLGTVSEGSSGVYTTTLTAGTVAGVASLSVNVGGNALGVTPATVTLNGNSGNLSATNSTLVAAPVNIEANSSDTSVVTLTLRDNNNNPVTGQTVAFTSTLGTLGNVTEQASGVYTATLTAGTVSGVASLSVSVNSNALGVTPATVTLNGDSGNLSTTNSTLVAAPVNIEANSSDTSVVTLTLRDNNNNPVTGQTVAFTSTLGTLGNVTEQASGLYTATLTAGTVSGVASLSVNVGGNALGVTPATVTLNGDSGNLSATNSTLVAAPVNIEANSSDTSVVTLTLRDNNNNPVTGQTVAFTSTLGTLGNVTEQASGLYTATLTAGTVSGVASLSVNVGGTALGVTPATVTLNGDSGNLSTTNSTLVAAPVNIEANSSDTSVVTLTLRDNNNNPVTGQTVAFTSTLGTLGNVTEQASGLYTATLTAGTVSGVASLSVSVNSTALGVTPATVTLNGDSGNLSTTNSTLVAAPVNIEANSSDTSVVTLTLRDNNNNPVTGQTVAFTSTLGTLGNVTEQASGVYTATLTAGTVAGVASLSVNVGGNALGVTPATVTLNGDSGNLSTTNSTLVAAPVNIEANSSDTSVVTLTLRDNNNNPVTGQTVAFTSTLGTLGNVTEQASGVYTATLTAGTVSGVASLSVSVGSSALGVTPATVTLNGDSGNLSTTNSTLVAAPVNIEANNSDTSVVTLTLRDNNNNPVTGQTVAFTSTLGTLGNVTEQASGVYTATLTAGTVSGVASLSVSVNSNALGVTPATVTLNGDSGNLSTTNSTLVAAPVNIEANSSDTSVVTLTLRDNNNNPVTGQTVVFTSTLGTLGNVTEQASGLYTATLTAGTVSGVASLSVSVGGNALGVTGNITLAPGALDAARSILAVNKPSINADDRIGSTITFTAQDAQGNAITGLDIAFMTDLENSQIMTLVDHNDGTYTANINGTQTGIANIAVQSSGATIAGLAATMVTITPGAWNTTQATPVMTVALPITTCQSSSGVYKRYYIGIVTHELYDNYGNEISGILTYNLGAGRYTTVTSQNSSVSGSNGLTRRSNSPVSHFILTSDAYTSQAACYAERIANVNVTITVTAITDDFKTSAVNKVFILGTGSN
**Q.** With B1 as the binder, how does the “glycan array binding signal (z-score)” value [1] read?
**A.** The value was -0.337.

**Q.** And the “glycan array binding signal (z-score)” value [2]?
**A.** Its value is -0.243.

**Q.** What about the “glycan array binding signal (z-score)” value [3] of the same binder?
**A.** The value was -0.34.

**Q.** And the “glycan array binding signal (z-score)” value [4]?
**A.** The value was 0.089.

**Q.** And the “glycan array binding signal (z-score)” value [5]?
**A.** Its value is -0.111.

**Q.** What about the “glycan array binding signal (z-score)” value [6] of the same binder?
**A.** Its value is -0.103.

**Q.** And the “glycan array binding signal (z-score)” value [7]?
**A.** Its value is -0.153.

**Q.** And the “glycan array binding signal (z-score)” value [8]?
**A.** Its value is -0.507.

**Q.** And the “glycan array binding signal (z-score)” value [9]?
**A.** Its value is -0.427.

**Q.** What about the “glycan array binding signal (z-score)” value [10] of the same binder?
**A.** The value was -0.307.

**Q.** And the “glycan array binding signal (z-score)” value [11]?
**A.** Its value is -0.256.

**Q.** What about the “glycan array binding signal (z-score)” value [12] of the same binder?
**A.** The value was -0.34.

**Q.** And the “glycan array binding signal (z-score)” value [13]?
**A.** The value was -0.209.

**Q.** What about the “glycan array binding signal (z-score)” value [14] of the same binder?
**A.** The value was -0.281.

**Q.** And the “glycan array binding signal (z-score)” value [15]?
**A.** Its value is -0.354.

**Q.** And the “glycan array binding signal (z-score)” value [16]?
**A.** Its value is -0.274.

**Q.** What about the “glycan array binding signal (z-score)” value [17] of the same binder?
**A.** The value was -0.118.

**Q.** What about the “glycan array binding signal (z-score)” value [18] of the same binder?
**A.** The value was -0.117.

**Q.** What about the “glycan array binding signal (z-score)” value [19] of the same binder?
**A.** Its value is -0.241.

**Q.** And the “glycan array binding signal (z-score)” value [20]?
**A.** The value was -0.216.

**Q.** What about the “glycan array binding signal (z-score)” value [21] of the same binder?
**A.** The value was -0.299.

**Q.** What about the “glycan array binding signal (z-score)” value [22] of the same binder?
**A.** Its value is -0.206.
